Drawing on article PMC12136788, this text covers binding signal for 22 molecules.

The other results are listed elsewhere or left out.

T1: UNK ZnF1-3 (human, UniProt Q9C0B0 31-174)
T1 sequence: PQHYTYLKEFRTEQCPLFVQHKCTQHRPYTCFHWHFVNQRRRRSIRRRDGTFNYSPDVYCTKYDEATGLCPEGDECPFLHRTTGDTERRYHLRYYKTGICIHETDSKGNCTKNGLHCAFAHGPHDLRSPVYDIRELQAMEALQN

B1: chr1:21069516:21069517:-_ENSG00000127483_ENST00000312239|hu_mus|FALSE|FALSE (ssRNA)
RNA: GGGAGUUCUACAGUCCGACGAUCUAAGUGCCACAAGGAAGAAUAAAUGAUAAGCAGAAACUGUAGUUCUCAAGUAAGAAGCUAGUACUAUUUUACACAACCUCACAACCCUAAACAAAUACAAACAAGAAGAGGGCUGGGUAGCAACAGAGGAUUGAGCAUCA
B2: chr5:95128998:95128999:+_ENSG00000164292_ENST00000379982|hu_hu|motif|central (ssRNA)
RNA: GGGAGUUCUACAGUCCGACGAUCCUUUUAAGACCACAGUGGUAGUUUUUUUCCAAAGAGAACUAAUAAACAUAUUAAGCGGUAUGGUAAUUUUUCUAACACCCACAUUGGUUUCGGUCAGAAGAAUUUUACUGGAACCUGGAGCAACAGAGGAUUGAGCAUCA
B3: chr6:170626544:170626545:+_ENSG00000112584_ENST00000537664|hu_mus|motif|central (ssRNA)
RNA: GGGAGUUCUACAGUCCGACGAUCUAGGCGUACAUCCAGGGUACUUGUUUCGGUGACGCUCUGCCAGCUCGUGGAUAUUGACGGUGGUACAUAUGUGUGGGCACGUACUCCCCACAAACCCCUGCAAACCUCUUACACCCAUAACAACAGAGGAUUGAGCAUCA
B4: chr10:17279496:17279497:+_ENSG00000026025_ENST00000224237|hu_hu|motif|central (ssRNA)
RNA: GGGAGUUCUACAGUCCGACGAUCUUAAUGGUAUUCAAAAUACCUUUUAAAAAGUAUUCUAGCACAAGAUUUUUCUGUAAACGGGAUUAUGUUGUAAACUUUUUUCUAAAUCUUGUAGGAGUGUCGGUUGUUAAGAACUAGAGCCAACAGAGGAUUGAGCAUCA
B5: chr3:100845581:100845582:-_ENSMUSG00000027864_ENSMUST00000102694|mus_hu|motif|central (ssRNA)
RNA: GGGAGUUCUACAGUCCGACGAUCCCUGGUGGGGUAUACUUGUUGCCCGUCUUCCCACCACAGGCCCGGGCCAAGGAAAGGCGGCUGUCAAUGCAGAAUCUAAUGUUUCUACCAUGUGCAUGGUCCCCUUGGUGGGGAAAACUCCAACAGAGGAUUGAGCAUCA
B6: chr18:43668140:43668141:-_ENSG00000152234_ENST00000398752|hu_mus|FALSE|FALSE (ssRNA)
RNA: GGGAGUUCUACAGUCCGACGAUCCAGUCUCUUCACCAGCUGAGCCACAGUGGACCGCUUCUGACCAAUCGCGACGUAGAUGCAGUACAGCUUCUUCUUCUCGUCGGUCCCAUCGUUGAAACGUUUCUGGUUGAUGAUUGUGUCCAACAGAGGAUUGAGCAUCA
B7: chr15:66793352:66793353:-_ENSG00000174444_ENST00000568588|hu_mus|FALSE|FALSE (ssRNA)
RNA: GGGAGUUCUACAGUCCGACGAUCCUUGAGGGAAGCAGCCUUCCGCCAAGUGCCAUACAGCUCAUCCAACUUCCGGAAAGCACUCUCCGUCCAGAUGCAGAAACGGCCCACAUGCCCACCAGGAGCCAGUUUCAAAAUGUUCAGCAACAGAGGAUUGAGCAUCA
B8: chr15:31385891:31385892:-_ENSMUSG00000039100_ENSMUST00000090227|mus_hu|FALSE|FALSE (ssRNA)
RNA: GGGAGUUCUACAGUCCGACGAUCUCUACAAUAGUUAUUCCUAGACCUUAGAUUAGUCAUUACAUUUUUAUUUAAGGUACUAUGUUACUUUCAUGACUACAAAAUGAGGCACUCGUACAAAACAGGAAUGAAAACAUACAUAUACAACAGAGGAUUGAGCAUCA
B9: 44626655_44626775_10377_CDS_ENSMUSG00000002028_ENSMUST00000002095|mouse|control|control (ssRNA)
RNA: GGGAGUUCUACAGUCCGACGAUCGAAGUUGGACGGCUGGGUCCCCGGAGCAGAAUCGGGAUCCCGGUCCCGCUGUGAAGUCAGGGUACCGGUUUUGCCAGCUAGGAGCUGGUUUCCUCGCUGUAGCUUAUAGUGUUCUUCGGCCAACAGAGGAUUGAGCAUCA
B10: 25565093_25565507_1963_CDS_ENSG00000170558_ENST00000399380|human|control|control (ssRNA)
RNA: GGGAGUUCUACAGUCCGACGAUCAAUAUUUGAUUUGGGAGGAUUACCCGAAUCUGUGAUUAUGAUGGGAACUUCAUAGAUACCAGCUUCAAGAAAUUUUAUCUUUAAAUUAAGCUGAGCAAAAUCACCAUUAAGCCGAGUGAUCAACAGAGGAUUGAGCAUCA
B11: chr9:14812383:14812384:-_ENSMUSG00000031934_ENSMUST00000164273|mus_mus|mus_mus_mus_hu_True|48_98 (ssRNA)
RNA: GGGAGUUCUACAGUCCGACGAUCAUAGCCCAGGUAGAUACAUGCCAACAGUAUAAUGAUGAGUGUCAGCAGGCGGCAGCUAAUGUAUUUCAUGAUUAAAUUAUUAGAAUUUUUCUUUGUCUUCAAGUACUGCUCCACAAUUGGCAACAGAGGAUUGAGCAUCA
B12: chr3:179287964:179287965:+_ENSG00000136518_ENST00000429709|hu_hu|hu_hu_hu_mus_True|1_78 (ssRNA)
RNA: GGGAGUUCUACAGUCCGACGAUCCUUGAGUGGUGAGAUGGCCUCCAUGUUCUCCCUCGGAACACGCAGGGCAUUGGUGUCUAUGUAGUAGGUGGGCCCGCCCUGCUUGCCUUUGUCACCAUCAAUCUCCAUCAUUGUGCUUCCCAACAGAGGAUUGAGCAUCA
B13: chr2:48026839:48026840:+_ENSG00000116062_ENST00000540021|hu_hu|hu_hu_hu_mus_False|8_48 (ssRNA)
RNA: GGGAGUUCUACAGUCCGACGAUCAUAGUGAGCCACUAGCGUCCUAAAUCUGGAACAGUGGCGGUCAUCCGAAAACUGGCCGAUGAAAAACUUUCCCAGUGAAGUGUCCACAAAGCAAACACCAUACGCACGAGUAUGACCAGACAACAGAGGAUUGAGCAUCA
B14: chrX:76939635:76939636:-_ENSG00000085224_ENST00000373344|hu_hu|FALSE|FALSE (ssRNA)
RNA: GGGAGUUCUACAGUCCGACGAUCUAAUUUUGUAGCAGAACUGAUUUCUGAAUUAUCUGUUGCCUGCUUUAAAAAUUUAACAUAACUGGAGUUCAUGUUGGCUGUGGUCUCAAUCAGUUUUUUUGCCUUCUUAAUCAUCUCUUUCAACAGAGGAUUGAGCAUCA
B15: chr2:92227778:92227779:-_ENSMUSG00000027223_ENSMUST00000050312|mus_hu|FALSE|FALSE (ssRNA)
RNA: GGGAGUUCUACAGUCCGACGAUCUGUCUUCAGGGGUGAGGAUGAUCGAGACACCCGAUCCUGCCAACUGUGCUUUUUGCCCAGAGAAUUAUUAUUCAGUGUGUCCUGAGACCGCGGCACCUGCGGAAAGAGGUUGAGCGUGGUCAACAGAGGAUUGAGCAUCA
B16: chr5:37680062:37680063:+_ENSMUSG00000029121_ENSMUST00000031004|mus_hu|mus_mus_mus_hu_False|78_98 (ssRNA)
RNA: GGGAGUUCUACAGUCCGACGAUCUUUGGGUGUAGCUGGCACCUCGUACACAGGACCAUCGUACAUGCCCCUGGAAACCCCUUGCAAUCCAAAAACCUUAUUCCUGAUUUUGACGCGCUGGUACAGGUGCUCCGGGAACGCCUUCAACAGAGGAUUGAGCAUCA
B17: chr12:66249844:66249845:-_ENSMUSG00000047534_ENSMUST00000052201|mus_hu|motif|central (ssRNA)
RNA: GGGAGUUCUACAGUCCGACGAUCGGGAUGCCUAUUUGUCUUAUCAGAUCCUACUGCCUCAGUAAUUGGAAACUCUUUCCGGACACCAGACUUCUGAAGAGUUUCUUUGACGGAAGGUCUAGCUUUCUUUUGUUUGAUAUAAAACAACAGAGGAUUGAGCAUCA
B18: chr7:141450121:141450122:+_ENSG00000106028_ENST00000265304|hu_mus|hu_hu_hu_mus_True|18_18 (ssRNA)
RNA: GGGAGUUCUACAGUCCGACGAUCUCAUCCGUUCUAUGCCUUUUCUUUUGUCUGGUCACUCAGAAAUAUAAUGUUAUCAGCUAUGAUUGUUGUUGCUUGCCGCCUCACAUUGUUUUUAUCCAUGUAUUCGCCAUAGUCCACUUUCAACAGAGGAUUGAGCAUCA
B19: chr1:151007788:151007789:+_ENSG00000143363_ENST00000271620|hu_mus|FALSE|FALSE (ssRNA)
RNA: GGGAGUUCUACAGUCCGACGAUCCUCGCUGCUGGGUCACCAUUACAACCCUGUACAUGCUACAUGAGGCUAAGUUCCUUGGUACAAUCACACAUAAACACGAAACAAUCCAGUGACCCAGAGCGCGAACGCUCCCAGGGAGGACAACAGAGGAUUGAGCAUCA
B20: chr4:76721835:76721836:+_ENSG00000138768_ENST00000264904|hu_mus|hu_hu_hu_mus_True|28_68 (ssRNA)
RNA: GGGAGUUCUACAGUCCGACGAUCGUUUGGCUGGGGUUUCUGAGACGCUCUGGAAUAUAACUCAUGUUGCUAAUAAAAUCCUAGUUUCUCUAUGAAAUUCUCUUUGCAAUCCUCUUCCUCUAUUAGUUGCUUUAGUUUCUCUUUCAACAGAGGAUUGAGCAUCA
B21: chr7:7679991:7679992:-_ENSG00000106399_ENST00000396682|hu_hu|hu_hu_hu_mus_False|18_78 (ssRNA)
RNA: GGGAGUUCUACAGUCCGACGAUCUGGGAUGAAUCUUUUCCAGCUUCCCCACGAAGCAGACAGGCUUGUCGAUAUACUGUGGUAACAUGCUGGCGUUGACGCGCGCUUUGGGGAGCUCCAUCAUGUCCUCCAUGAUUCUGCCGCCAACAGAGGAUUGAGCAUCA
B22: chr11:72497679:72497680:+_ENSMUSG00000020794_ENSMUST00000021148|mus_mus|FALSE|FALSE (ssRNA)
RNA: GGGAGUUCUACAGUCCGACGAUCUAUUGCUACAUCCAAUCCAAGAGAUGGGUGAAUCAUAGUACAAAAAGGACAAAGCACCUAGUGAUGACCCCUCCUCUGAAGUCAUCGUGAAAAACUCAAGUAAUUUACUAGUAUUUCAGUCAACAGAGGAUUGAGCAUCA

This assay addresses T1, UNK ZnF1-3. The assay is described as follows: nsRBNS (natural sequence RNA bind-n-seq); RBNS binding buffer (assumed for nsRBNS): 25 mM Tris pH 7.5, 150 mM KCl, 3 mM MgCl2, 0.01% Triton X-100, 500 ug/ml BSA, 20 U/ml SUPERase-In, 4 C; UNK is unkempt and MSI1 is Musashi-1; names of the RNAs are library labels; protein concentration not given here; high values mean tight binding.
Molecule B1 yielded a binding signal of 1.34 enrichment R.

The molecule B2 had a binding signal of 0.821 enrichment R.

As for B3, the binding signal amounted to 0.851 enrichment R.

With B4, the binding signal amounted to 0.656 enrichment R.

B5 showed a binding signal of 0.908 enrichment R.

Molecule B6 yielded a binding signal of 0.689 enrichment R.

Regarding B7, the binding signal amounted to 1.41 enrichment R.

As to B8, the binding signal was 0.911 enrichment R.

Turning to B9, the binding signal amounted to 0.836 enrichment R.

The molecule B10 displayed a binding signal of 1.34 enrichment R.

On to B11, for which the binding signal was 3.18 enrichment R.

Molecule B12 registered a binding signal of 0.432 enrichment R.

Molecule B13 displayed a binding signal of 1.16 enrichment R.

Molecule B14 had a binding signal of 0.662 enrichment R.

On to B15, for which the binding signal was found to be 1.56 enrichment R.

Regarding B16, the binding signal was determined as 0.817 enrichment R.

As for B17, the binding signal is 0.769 enrichment R.

On to B18, for which the binding signal was determined as 0.367 enrichment R.

Molecule B19 had a binding signal of 0.654 enrichment R.

With B20, the binding signal came to 0.605 enrichment R.

In the case of B21, the binding signal is 0.591 enrichment R.

B22 registered a binding signal of 0.891 enrichment R.
